Here are results for seven molecules from paper PMC4872721.

Sequences of proteins named here, by UniProt entry; tags and fusion partners are left off. A change or cut given only in a name is not applied to a line headed by its entry. Residues count along the entry.
UniProt Q99814: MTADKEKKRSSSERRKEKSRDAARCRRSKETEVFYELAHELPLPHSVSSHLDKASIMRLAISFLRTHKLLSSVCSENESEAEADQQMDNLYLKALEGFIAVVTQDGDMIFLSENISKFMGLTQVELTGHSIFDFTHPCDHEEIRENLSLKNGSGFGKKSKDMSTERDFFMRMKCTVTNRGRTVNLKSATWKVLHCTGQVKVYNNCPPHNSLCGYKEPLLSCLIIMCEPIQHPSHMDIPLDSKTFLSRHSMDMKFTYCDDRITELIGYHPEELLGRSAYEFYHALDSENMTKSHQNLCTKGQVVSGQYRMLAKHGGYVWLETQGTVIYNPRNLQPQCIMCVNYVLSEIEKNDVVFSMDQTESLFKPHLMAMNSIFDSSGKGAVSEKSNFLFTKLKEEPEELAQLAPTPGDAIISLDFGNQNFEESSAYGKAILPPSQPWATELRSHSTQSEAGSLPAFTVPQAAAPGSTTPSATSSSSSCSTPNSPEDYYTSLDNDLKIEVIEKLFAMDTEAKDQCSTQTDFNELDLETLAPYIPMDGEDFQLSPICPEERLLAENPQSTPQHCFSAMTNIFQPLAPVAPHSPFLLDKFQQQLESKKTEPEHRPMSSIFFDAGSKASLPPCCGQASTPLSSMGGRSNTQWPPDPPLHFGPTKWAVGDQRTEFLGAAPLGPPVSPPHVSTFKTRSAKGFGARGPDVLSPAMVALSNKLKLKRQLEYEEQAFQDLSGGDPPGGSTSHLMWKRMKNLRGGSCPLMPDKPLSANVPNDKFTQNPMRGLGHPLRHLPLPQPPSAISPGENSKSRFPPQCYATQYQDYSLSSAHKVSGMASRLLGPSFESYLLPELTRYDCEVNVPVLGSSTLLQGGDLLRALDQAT
UniProt Q16665: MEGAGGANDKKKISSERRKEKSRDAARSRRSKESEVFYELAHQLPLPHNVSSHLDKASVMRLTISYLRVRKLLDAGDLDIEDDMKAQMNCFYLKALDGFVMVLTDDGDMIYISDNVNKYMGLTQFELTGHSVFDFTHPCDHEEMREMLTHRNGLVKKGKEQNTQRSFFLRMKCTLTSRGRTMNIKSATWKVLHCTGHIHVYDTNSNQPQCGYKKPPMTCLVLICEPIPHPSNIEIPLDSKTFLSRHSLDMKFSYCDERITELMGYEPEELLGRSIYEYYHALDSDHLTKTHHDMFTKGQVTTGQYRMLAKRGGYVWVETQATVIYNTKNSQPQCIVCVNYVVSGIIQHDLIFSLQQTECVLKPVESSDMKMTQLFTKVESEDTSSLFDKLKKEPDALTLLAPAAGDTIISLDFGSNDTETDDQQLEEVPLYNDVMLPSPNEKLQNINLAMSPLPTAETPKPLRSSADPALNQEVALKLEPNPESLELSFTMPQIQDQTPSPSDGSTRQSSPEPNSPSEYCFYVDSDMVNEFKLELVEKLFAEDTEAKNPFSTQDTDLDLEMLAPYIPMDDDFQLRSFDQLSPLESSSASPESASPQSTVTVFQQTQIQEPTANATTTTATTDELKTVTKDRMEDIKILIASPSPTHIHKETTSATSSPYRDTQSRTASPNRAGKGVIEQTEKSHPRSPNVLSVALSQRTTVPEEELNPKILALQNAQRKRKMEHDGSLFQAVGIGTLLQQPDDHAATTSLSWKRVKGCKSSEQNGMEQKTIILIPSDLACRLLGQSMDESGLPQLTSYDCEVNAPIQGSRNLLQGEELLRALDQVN
GST-HIF-1α (531-826): residues 531-826 of Q16665
GST-HIF-1α (531-588): residues 531-588 of Q16665
GST-HIF-1α (575-786): residues 575-786 of Q16665
GST-HIF-1α (786-826): residues 786-826 of Q16665

In assay [1] the target is T1, V5-epitope-tagged PRDX2 (peroxiredoxin 2) (human) (UniProt P32119).
T1 sequence: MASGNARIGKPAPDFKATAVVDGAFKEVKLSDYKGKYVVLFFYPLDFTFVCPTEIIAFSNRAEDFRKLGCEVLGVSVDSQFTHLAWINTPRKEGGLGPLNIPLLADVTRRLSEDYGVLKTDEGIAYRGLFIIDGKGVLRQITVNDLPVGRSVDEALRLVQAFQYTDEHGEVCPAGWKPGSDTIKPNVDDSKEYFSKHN
Kind of assay: co-IP; IP with anti-V5 antibody from whole cell lysate of PRDX2-V5-transfected HeLa cells exposed to 1% O2 for 24 h; modified RIPA buffer, overnight, protein A Sepharose; blot for HIF-1α.

In assay [2] the target is endogenous HIF-2α (hypoxia-inducible factor 2α) (human (endogenous in HeLa)) (UniProt Q99814). As to the kind of experiment: co-IP; IP with anti-HIF-2α antibody from whole cell lysate of transfected HeLa cells exposed to 1% O2 for 24 h; modified RIPA buffer, overnight, protein A Sepharose; blot for V5.
The target of assay [3] is GST-HIF-1α (531-588) (human) (UniProt Q16665). As to the kind of experiment: pull-down; purified GST-HIF-1α fusion proteins immobilised on glutathione-Sepharose beads, incubated overnight with HeLa whole cell lysate holding PRDX2-V5 or PRDX4-V5; washed three times; blot for V5; only the target purified.
The target in assay [4] is GST-HIF-1α (531-826) (human) (UniProt Q16665). The description is as above.
The target of assay [5] is GST-HIF-1α (575-786) (human) (UniProt Q16665). The description is as above.
For assay [6], the target named is GST-HIF-1α (786-826) (human) (UniProt Q16665). Described as above.
The target of assay [7] is endogenous HIF-1α (hypoxia-inducible factor 1α) (human (endogenous in HeLa)) (UniProt Q16665). Kind of assay: co-IP; IP with anti-HIF-1α antibody from whole cell lysate of transfected HeLa cells exposed to 1% O2 for 24 h; modified RIPA buffer (50 mM Tris-HCl pH 7.5, 1 mM β-mercaptoethanol, 150 mM NaCl, 1% Igepal), overnight, protein A Sepharose; blot for V5.

No constants are given. Whether binding was seen depends on the method and setting. Binding seen in cells or lysates may run through a third protein. Some binding calls cover weakened binding; strength is not graded here. Sequences can lack the tags named with a protein.

With “endogenous HIF-1α (hypoxia-inducible factor 1α) (from UniProt Q16665 1-826)”, the binding entry in assay [1] was “binds”.

B1: V5-epitope-tagged PRDX2 (peroxiredoxin 2) (protein, UniProt P32119 1-198)
chain: T1 sequence
As for B1, the binding result was “binds” in assay [2]; “binds weakly” in assay [3]; “binds” in assay [4]; “binds” in assay [5]; “no binding” in assay [6]; “binds” in assay [7].

B2: V5-epitope-tagged PRDX4 (peroxiredoxin 4) (protein, UniProt Q13162 38-271)
chain: WETEERPRTREEECHFYAGGQVYPGEASRVSVADHSLHLSKAKISKPAPYWEGTAVIDGEFKELKLTDYRGKYLVFFFYPLDFTFVCPTEIIAFGDRLEEFRSINTEVVACSVDSQFTHLAWINTPRRQGGLGPIRIPLLSDLTHQISKDYGVYLEDSGHTLRGLFIIDDKGILRQITLNDLPVGRSVDETLRLVQAFQYTDKHGEVCPAGWKPGSETIIPDPAGKLKYFDKLN
In the case of B2, the binding result in assay [2] is “binds”; in assay [4], “binds”; in assay [5] it was “binds”; in assay [7], “binds weakly”.

B3: V5-epitope-tagged PRDX3 (peroxiredoxin 3) (protein, UniProt P30048 62-256)
chain: APAVTQHAPYFKGTAVVNGEFKDLSLDDFKGKYLVLFFYPLDFTFVCPTEIVAFSDKANEFHDVNCEVVAVSVDSHFSHLAWINTPRKNGGLGHMNIALLSDLTKQISRDYGVLLEGSGLALRGLFIIDPNGVIKHLSVNDLPVGRSVEETLRLVKAFQYVETHGEVCPANWTPDSPTIKPSPAASKEYFQKVNQ
B3: the binding result in assay [2] is given as “binds weakly”; in assay [7] it was “no binding”.

B4: V5-epitope-tagged PRDX1 (peroxiredoxin 1) (protein, UniProt Q06830 1-199)
chain: MSSGNAKIGHPAPNFKATAVMPDGQFKDISLSDYKGKYVVFFFYPLDFTFVCPTEIIAFSDRAEEFKKLNCQVIGASVDSHFCHLAWVNTPKKQGGLGPMNIPLVSDPKRTIAQDYGVLKADEGISFRGLFIIDDKGILRQITVNDLPVGRSVDETLRLVQAFQFTDKHGEVCPAGWKPGSDTIKPDVQKSKEYFSKQK
For B4, the binding result is reported as “binds weakly” in assay [2] and “binds” in assay [7].

B5: V5-epitope-tagged PRDX6 (peroxiredoxin 6) (protein, UniProt P30041 1-224)
chain: MPGGLLLGDVAPNFEANTTVGRIRFHDFLGDSWGILFSHPRDFTPVCTTELGRAAKLAPEFAKRNVKLIALSIDSVEDHLAWSKDINAYNCEEPTEKLPFPIIDDRNRELAILLGMLDPAEKDEKGMPVTARVVFVFGPDKKLKLSILYPATTGRNFDEILRVVISLQLTAEKRVATPVDWKDGDSVMVLPTIPEEEAKKLFPKGVFTKELPSGKKYLRYTPQP
For B5, the binding result is “no binding” in assay [2] and “binds weakly” in assay [7].

B6: V5-epitope-tagged PRDX5 (peroxiredoxin 5) (protein, UniProt P30044 53-214)
chain: MAPIKVGDAIPAVEVFEGEPGNKVNLAELFKGKKGVLFGVPGAFTPGCSKTHLPGFVEQAEALKAKGVQVVACLSVNDAFVTGEWGRAHKAEGKVRLLADPTGAFGKETDLLLDDSLVSIFGNRRLKRFSMVVQDGIVKALNVEPDGTGLTCSLAPNIISQL
With B6, the binding result in assay [2] and in assay [7] was “no binding” throughout.
